In PubChem BioAssay AID504333 (National Center for Advancing Translational Sciences (NCATS), 2011):
The campaign covered roughly 360,000 compounds. About 16,000 (4.4%) were called active. Inconclusive means that the source gave no clear call. Such entries were picked first, then a sample of the others. Calls come from the whole dose curve; as a rule, active = well fitted inhibition curve with a large enough effect; inconclusive = small, poorly fitted or top-dose-only effect; inactive = no such curve, though single readings can be large or run the other way. Where the call is inconclusive, the potency comes from a doubtful curve fit.
% is set by controls: 0 for no effect and ±100 for the full control effect; potency is the fitted concentration of half-maximal effect; tags give direction and shape of the fitted curve.
Note: nearly all actives have a fitted effect of over 60% in size.

What follows are compounds tested against Bromodomain adjacent to zinc finger domain protein 2B (Homo sapiens) (UniProt Q9UIF8) (assay: qHTS Assay for Inhibitors of BAZ2B). Conditions: AlphaScreen BAZ2B-H3K14Ac peptide displacement; activity change, negative = inhibition: at 114 µM (top of the series) unless noted.
UniProt Q9UIF8, sequence (Q9UIF8 whole entry, looked up, the tested form may be a part): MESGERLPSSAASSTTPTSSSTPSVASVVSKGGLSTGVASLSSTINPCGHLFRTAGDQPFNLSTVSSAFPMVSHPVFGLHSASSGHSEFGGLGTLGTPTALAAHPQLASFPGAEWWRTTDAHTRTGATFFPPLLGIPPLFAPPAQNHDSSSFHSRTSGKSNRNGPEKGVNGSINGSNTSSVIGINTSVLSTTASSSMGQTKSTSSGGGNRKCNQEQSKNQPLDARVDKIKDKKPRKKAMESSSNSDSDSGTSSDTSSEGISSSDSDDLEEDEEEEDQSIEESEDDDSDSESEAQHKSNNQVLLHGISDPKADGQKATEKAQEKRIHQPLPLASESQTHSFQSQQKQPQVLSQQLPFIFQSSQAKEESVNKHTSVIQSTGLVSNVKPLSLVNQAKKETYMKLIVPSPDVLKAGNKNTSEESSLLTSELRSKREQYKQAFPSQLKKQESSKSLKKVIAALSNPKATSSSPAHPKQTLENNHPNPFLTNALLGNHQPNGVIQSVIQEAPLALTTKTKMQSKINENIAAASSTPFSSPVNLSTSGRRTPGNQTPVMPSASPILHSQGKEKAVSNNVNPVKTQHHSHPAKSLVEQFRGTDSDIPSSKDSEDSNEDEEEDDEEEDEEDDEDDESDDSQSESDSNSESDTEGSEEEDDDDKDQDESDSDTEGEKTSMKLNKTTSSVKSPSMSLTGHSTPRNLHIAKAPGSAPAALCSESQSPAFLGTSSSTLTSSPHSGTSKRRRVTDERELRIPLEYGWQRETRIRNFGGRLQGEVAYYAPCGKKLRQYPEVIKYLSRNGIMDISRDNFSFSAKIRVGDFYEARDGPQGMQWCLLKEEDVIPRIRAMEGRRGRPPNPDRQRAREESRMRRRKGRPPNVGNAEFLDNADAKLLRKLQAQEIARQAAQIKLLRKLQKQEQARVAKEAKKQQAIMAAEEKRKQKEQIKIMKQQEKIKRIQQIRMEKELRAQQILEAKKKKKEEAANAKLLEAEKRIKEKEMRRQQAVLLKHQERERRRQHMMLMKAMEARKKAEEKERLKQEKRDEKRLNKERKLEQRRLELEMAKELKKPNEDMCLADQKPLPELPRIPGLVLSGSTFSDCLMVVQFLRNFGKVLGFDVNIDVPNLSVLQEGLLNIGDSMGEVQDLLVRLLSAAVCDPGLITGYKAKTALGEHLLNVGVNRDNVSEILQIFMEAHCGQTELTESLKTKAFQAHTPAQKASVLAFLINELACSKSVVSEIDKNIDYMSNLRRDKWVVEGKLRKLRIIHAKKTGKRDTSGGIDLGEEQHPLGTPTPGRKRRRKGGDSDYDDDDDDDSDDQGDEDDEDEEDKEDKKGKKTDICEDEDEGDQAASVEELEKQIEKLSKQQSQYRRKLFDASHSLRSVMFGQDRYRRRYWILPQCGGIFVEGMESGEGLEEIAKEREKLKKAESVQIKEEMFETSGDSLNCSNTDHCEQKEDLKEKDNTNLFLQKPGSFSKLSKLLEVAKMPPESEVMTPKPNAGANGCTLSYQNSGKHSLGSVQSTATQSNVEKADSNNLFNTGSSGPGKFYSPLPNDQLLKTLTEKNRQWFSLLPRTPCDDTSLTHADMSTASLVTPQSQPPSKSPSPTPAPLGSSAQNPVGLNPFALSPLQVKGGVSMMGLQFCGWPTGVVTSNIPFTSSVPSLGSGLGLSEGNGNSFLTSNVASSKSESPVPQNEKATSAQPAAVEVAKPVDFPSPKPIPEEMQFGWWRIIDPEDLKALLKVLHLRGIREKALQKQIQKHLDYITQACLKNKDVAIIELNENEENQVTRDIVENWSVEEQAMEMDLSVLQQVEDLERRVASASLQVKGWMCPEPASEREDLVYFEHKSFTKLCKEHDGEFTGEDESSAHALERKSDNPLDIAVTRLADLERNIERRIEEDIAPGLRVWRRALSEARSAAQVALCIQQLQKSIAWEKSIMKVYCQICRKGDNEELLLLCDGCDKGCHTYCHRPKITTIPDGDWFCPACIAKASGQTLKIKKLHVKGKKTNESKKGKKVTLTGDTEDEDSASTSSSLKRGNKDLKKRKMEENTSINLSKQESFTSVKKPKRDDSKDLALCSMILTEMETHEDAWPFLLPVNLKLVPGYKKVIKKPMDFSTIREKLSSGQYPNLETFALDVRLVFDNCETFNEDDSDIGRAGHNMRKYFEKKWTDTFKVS
Method in brief: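 Compounds, titrated to a top concentration of 110 uM, were incubated 30 min at room temperature with preformed BAZ2B/acetyl-K14 H3 peptide complex (50 nM each). Proximity signal was measured by AlphaScreen after 20 min with beads.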
With `CCOC(=O)CN1C(=O)c2ccccc2C1=O` the “activity change, negative = inhibition” value was inactive: -2.39%.
`CN(C)S(=O)(=O)c1cccc(-c2cn3cc(Cl)ccc3n2)c1` was tested, and the Potency was inconclusive: 3.55 µM [inhibitor, full curve, poor fit].
`CC(=O)N[C@@H](C)c1nc2ccccc2n1CCCN1CCN(c2nc(-c3ccc(C)cc3)cs2)CC1` was tested, and the Potency was inconclusive: 50.1 µM [inhibitor, partial curve].
`Cc1ccc(/C=C2\C(=O)Nc3ccccc32)o1` was tested, and the Potency was active: 39.8 µM.
`COc1ccc(C(c2nnnn2Cc2ccc(F)cc2)N2CCN(c3ccc(OC)cc3)CC2)cc1` (configuration not stated) was tested, and the Potency was inconclusive: 31.6 µM [inhibitor, full curve].
In the case of `CS(=O)(=O)c1ccccc1-c1nnc(NC(=O)c2ccc3ncsc3c2)o1`, the Potency is reported as active: 50.1 µM.
`CCOC(=O)c1ccc2[nH]c(CSc3nnc(-c4cccc(F)c4)n3C)cc(=O)c2c1` was tested, and the “activity change, negative = inhibition” value was inactive: 8.16%.
In the case of `Cc1ccc(C)c(-c2[nH]c3c(c2-c2c(-n4cccc4)n(C)c(=O)n(C)c2=O)c(=O)n(C)c(=O)n3C)c1`, the Potency is reported as inconclusive: 89.1 µM [inhibitor, single point].
With `Cc1sc2nc(CSCC(=O)N(C)CC(=O)Nc3ccc(F)cc3)[nH]c(=O)c2c1C` the “activity change, negative = inhibition” value was inactive: -10.5%.
For `COc1ccc(Cl)cc1NC(=O)C(C)N1CCN(C/C=C/c2ccccc2)CC1` (configuration not stated), the Potency was active: 50.1 µM.
For `COc1ccc(NC(=O)CSc2nc(-c3ccco3)nc3cc(=O)[nH]n23)cc1Cl`, the Potency was active: 79.4 µM.
For `CCOC(=O)/C=C/C(=O)Nc1ccc(S(=O)(=O)Nc2cc(C)on2)cc1`, the “activity change, negative = inhibition” value was inactive: -18.9%.
In the case of `Cc1ccc(OCCCCN(C)Cc2ccccc2)c(Br)c1`, the “activity change, negative = inhibition” value is reported as inactive: -37.1%.
For `CNCCCCOc1ccccc1Cc1ccccc1`, the “activity change, negative = inhibition” value was inactive: -10.3%.
`N#C/C(=N/Nc1ccc([N+](=O)[O-])cc1)C(=N)N1CCCCC1` was tested, and the Potency was active: 35.5 µM.
In the case of `Cc1ccc(-c2cnc(NC(=O)CCC(=O)N(C)Cc3ccccc3)n2C)cc1`, the Potency is reported as inconclusive: 79.4 µM [inhibitor, single point].
For `COc1ccccc1-n1ccnc1SCC(=O)NCC1CCCO1` (configuration not stated), the “activity change, negative = inhibition” value was inactive: -2.5% [at 57.1 µM].
For `O=C(O)c1cccc(Nc2cc(Cl)c3nonc3c2[N+](=O)[O-])c1`, the “activity change, negative = inhibition” value was inactive: -16.5%.
For `COc1ccc(N2CCN(CC(=O)Nc3cc(C)cc(C)c3)CC2)cc1`, the Potency was inconclusive: 39.8 µM [inhibitor, partial curve].
With `COC(=O)c1c(C)oc2ccc(N(C(=O)c3ccncc3)S(=O)(=O)c3ccc4ccccc4c3)cc12` the “activity change, negative = inhibition” value was inactive: -26.6%.
For `CCn1c2ccccc2c2cc(NC(=O)CNCC3CCCO3)ccc21` (configuration not stated), the Potency was active: 50.1 µM.
`O=C1ON=C(c2cccc([N+](=O)[O-])c2)/C1=C/c1ccc(O)cc1` was tested, and the Potency was inconclusive: 50.1 µM [inhibitor, partial curve].
